This note sets out measurements from PMC6056059.

The chains behind the UniProt entries cited, without tags or fusion partners.
UniProt Q7L5Y9: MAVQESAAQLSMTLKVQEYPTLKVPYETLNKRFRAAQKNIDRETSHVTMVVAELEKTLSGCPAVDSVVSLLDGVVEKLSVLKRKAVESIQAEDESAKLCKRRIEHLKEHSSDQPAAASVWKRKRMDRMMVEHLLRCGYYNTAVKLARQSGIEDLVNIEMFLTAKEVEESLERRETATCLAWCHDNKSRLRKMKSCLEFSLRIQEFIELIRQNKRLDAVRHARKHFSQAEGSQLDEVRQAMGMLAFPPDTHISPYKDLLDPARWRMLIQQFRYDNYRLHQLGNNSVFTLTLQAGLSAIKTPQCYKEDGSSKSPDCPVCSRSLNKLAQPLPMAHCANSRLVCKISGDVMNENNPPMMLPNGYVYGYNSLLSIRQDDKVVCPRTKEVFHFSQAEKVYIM
UniProt Q8IUR7: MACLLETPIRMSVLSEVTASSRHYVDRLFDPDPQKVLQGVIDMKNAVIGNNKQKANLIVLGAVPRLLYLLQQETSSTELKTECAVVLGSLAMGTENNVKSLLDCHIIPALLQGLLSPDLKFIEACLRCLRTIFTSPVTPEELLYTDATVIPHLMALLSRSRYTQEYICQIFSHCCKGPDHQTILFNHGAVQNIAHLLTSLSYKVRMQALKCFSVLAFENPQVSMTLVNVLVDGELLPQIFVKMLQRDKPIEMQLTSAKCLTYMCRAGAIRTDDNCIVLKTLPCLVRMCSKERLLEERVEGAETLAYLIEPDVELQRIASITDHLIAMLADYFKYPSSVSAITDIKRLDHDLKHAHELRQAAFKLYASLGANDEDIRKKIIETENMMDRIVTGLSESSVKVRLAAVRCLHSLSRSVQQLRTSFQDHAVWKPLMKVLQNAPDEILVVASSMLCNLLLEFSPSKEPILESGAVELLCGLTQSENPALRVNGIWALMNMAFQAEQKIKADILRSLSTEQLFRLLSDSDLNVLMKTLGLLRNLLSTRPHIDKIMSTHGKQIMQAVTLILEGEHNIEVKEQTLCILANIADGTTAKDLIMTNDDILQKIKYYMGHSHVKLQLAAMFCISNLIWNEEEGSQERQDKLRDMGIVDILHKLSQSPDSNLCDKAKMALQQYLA
UniProt A5YKK6: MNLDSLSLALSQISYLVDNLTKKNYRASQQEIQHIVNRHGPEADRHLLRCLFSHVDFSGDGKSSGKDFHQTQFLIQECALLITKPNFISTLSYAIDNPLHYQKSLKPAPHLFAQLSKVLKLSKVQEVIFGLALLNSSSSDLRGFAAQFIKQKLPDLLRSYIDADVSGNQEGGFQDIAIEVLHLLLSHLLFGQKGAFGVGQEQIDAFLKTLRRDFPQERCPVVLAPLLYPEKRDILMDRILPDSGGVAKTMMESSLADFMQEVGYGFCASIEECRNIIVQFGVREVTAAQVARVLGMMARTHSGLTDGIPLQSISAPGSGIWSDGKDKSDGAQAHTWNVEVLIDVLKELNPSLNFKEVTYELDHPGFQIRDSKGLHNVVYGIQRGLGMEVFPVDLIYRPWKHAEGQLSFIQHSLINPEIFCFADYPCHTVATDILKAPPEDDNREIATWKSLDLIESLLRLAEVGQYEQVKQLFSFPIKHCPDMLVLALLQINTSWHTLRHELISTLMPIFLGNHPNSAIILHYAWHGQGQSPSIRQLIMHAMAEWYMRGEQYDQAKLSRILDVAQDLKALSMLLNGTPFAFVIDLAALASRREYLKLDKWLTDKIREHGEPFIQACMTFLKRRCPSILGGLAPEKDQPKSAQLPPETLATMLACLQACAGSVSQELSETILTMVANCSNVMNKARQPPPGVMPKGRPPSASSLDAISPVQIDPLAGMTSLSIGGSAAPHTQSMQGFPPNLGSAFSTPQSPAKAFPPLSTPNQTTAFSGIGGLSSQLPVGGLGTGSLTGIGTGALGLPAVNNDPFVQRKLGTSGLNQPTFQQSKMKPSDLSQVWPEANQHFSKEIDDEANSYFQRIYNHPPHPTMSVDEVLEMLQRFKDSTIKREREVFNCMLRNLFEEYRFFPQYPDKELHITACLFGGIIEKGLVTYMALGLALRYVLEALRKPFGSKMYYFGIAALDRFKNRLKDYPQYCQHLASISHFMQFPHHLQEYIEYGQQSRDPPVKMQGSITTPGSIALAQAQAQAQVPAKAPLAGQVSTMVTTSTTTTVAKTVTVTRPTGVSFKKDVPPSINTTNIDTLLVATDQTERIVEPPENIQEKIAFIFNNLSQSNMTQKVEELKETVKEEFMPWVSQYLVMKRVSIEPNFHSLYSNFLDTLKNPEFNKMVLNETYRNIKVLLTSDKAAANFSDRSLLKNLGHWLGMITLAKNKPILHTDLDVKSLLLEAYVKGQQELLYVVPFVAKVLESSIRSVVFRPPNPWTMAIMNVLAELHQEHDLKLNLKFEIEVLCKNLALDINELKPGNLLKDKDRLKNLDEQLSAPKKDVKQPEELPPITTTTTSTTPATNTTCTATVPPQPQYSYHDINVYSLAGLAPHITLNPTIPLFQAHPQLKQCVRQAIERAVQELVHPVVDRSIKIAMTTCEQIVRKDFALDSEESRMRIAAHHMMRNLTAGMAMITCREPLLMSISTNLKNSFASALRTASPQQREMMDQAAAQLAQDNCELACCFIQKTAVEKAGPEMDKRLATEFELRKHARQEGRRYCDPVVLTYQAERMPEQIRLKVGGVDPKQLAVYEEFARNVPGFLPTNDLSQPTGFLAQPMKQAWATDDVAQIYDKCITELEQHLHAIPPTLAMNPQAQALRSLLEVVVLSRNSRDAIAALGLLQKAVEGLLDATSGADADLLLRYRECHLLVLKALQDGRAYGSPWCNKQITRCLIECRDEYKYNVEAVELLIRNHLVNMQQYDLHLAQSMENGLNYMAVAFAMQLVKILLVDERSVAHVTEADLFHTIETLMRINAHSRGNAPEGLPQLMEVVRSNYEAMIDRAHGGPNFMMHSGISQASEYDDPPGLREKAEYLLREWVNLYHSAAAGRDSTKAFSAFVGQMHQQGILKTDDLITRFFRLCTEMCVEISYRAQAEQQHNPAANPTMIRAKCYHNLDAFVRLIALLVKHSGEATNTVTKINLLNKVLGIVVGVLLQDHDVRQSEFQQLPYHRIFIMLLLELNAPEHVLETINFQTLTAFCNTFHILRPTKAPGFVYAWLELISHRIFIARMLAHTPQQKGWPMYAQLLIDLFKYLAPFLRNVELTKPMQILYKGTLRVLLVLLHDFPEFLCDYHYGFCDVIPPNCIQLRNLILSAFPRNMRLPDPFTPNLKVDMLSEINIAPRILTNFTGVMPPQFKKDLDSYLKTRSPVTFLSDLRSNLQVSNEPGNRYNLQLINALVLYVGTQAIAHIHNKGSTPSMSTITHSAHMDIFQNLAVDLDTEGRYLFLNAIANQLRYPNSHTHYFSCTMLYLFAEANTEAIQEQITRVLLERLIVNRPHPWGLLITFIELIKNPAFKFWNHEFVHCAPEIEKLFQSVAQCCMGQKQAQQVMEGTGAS
UniProt Q9H871: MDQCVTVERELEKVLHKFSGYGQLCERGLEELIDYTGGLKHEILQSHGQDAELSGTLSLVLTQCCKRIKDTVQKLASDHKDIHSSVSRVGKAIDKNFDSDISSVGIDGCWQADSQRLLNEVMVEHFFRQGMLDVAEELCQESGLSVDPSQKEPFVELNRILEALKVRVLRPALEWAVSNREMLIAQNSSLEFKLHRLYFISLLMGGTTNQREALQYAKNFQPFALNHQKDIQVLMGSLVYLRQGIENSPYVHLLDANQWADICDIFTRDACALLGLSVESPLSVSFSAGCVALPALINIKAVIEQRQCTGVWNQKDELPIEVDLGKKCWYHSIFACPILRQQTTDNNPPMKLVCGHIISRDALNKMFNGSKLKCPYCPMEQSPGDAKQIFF
UniProt Q9H7D7: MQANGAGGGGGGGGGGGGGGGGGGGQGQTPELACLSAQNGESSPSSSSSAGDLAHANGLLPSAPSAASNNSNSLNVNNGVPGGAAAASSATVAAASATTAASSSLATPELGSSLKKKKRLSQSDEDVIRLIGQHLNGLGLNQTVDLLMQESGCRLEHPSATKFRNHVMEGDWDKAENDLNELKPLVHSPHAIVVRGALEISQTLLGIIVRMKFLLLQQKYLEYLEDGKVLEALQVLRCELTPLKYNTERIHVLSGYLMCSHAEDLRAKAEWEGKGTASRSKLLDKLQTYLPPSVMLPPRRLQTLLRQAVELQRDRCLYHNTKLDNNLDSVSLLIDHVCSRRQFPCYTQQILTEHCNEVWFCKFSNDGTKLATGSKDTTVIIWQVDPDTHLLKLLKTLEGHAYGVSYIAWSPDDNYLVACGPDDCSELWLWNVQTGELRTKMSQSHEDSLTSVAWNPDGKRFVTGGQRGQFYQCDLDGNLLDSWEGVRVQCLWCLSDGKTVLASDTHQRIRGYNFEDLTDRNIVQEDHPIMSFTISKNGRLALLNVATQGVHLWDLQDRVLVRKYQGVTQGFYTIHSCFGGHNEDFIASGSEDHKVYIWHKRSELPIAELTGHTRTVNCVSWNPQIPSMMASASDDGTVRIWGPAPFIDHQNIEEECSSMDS
UniProt P69566: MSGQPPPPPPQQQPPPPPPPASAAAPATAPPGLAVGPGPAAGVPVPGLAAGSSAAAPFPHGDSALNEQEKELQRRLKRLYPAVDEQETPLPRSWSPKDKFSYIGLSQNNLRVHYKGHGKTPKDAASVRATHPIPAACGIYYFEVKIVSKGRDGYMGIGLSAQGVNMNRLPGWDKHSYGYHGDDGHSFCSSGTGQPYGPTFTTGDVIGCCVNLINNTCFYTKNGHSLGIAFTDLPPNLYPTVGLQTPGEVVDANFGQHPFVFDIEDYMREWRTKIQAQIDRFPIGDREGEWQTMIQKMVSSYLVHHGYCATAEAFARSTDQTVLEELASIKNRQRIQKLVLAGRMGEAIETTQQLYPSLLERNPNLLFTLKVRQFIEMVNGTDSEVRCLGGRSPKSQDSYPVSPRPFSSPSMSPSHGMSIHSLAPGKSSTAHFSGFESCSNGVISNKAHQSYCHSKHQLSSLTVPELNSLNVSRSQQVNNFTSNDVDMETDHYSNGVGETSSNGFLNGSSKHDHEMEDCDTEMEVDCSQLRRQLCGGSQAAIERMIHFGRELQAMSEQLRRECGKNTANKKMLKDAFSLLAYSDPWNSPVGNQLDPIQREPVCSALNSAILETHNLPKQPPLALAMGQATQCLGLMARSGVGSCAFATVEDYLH
UniProt Q9D7M1: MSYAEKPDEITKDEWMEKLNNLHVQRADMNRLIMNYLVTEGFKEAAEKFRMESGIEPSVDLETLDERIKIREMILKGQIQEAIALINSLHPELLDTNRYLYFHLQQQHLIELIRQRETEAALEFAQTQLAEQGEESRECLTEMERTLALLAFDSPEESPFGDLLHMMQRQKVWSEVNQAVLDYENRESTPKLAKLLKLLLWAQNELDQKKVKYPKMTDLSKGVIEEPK

For assay [1], the target named is T1, Bicc1-D913K915E916/AAA (MutD), yeast two-hybrid fusion (mouse) (UniProt Q99MQ1).
T1 sequence: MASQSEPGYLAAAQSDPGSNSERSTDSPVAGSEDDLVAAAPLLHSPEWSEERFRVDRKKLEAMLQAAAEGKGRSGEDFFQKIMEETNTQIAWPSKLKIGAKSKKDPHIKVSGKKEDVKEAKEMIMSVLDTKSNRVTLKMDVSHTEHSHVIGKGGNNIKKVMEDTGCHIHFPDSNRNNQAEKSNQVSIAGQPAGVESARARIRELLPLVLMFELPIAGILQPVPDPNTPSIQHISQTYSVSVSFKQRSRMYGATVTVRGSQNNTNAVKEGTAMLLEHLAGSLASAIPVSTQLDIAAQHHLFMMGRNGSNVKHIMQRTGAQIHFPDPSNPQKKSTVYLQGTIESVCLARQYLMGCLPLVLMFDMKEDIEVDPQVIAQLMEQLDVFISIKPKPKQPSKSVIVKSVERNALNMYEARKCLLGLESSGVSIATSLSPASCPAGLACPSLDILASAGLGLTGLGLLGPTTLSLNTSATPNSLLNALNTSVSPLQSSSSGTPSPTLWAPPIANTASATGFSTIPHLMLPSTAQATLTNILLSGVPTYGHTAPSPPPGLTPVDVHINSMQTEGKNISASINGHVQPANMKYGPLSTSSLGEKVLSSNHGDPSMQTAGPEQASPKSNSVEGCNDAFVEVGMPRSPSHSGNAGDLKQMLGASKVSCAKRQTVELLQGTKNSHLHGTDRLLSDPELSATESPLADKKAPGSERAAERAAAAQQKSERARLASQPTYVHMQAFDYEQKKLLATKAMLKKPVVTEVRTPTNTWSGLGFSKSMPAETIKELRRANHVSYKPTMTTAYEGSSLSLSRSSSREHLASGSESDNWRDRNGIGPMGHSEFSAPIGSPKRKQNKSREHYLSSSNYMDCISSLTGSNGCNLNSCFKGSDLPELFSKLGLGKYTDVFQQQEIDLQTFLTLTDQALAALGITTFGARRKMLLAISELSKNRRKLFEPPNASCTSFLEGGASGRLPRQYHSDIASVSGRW
Kind of assay: two-hybrid; Gal4-BD (pGBKT7) and Gal4-AD (pACTII) fusions, each protein as bait and as prey; HIS3 reporter, growth on Leu-, Trp-, His- medium with 3-AT titration, three days at 30°C.

The target in assay [2] is T2, Bicc1 SAM domain, yeast two-hybrid fusion (mouse) (UniProt Q99MQ1).
T2 sequence: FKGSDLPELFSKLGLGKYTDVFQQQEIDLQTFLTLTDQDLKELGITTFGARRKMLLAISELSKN
The assay is described as above.

Assay [3] concerns the target T3, HA-Bicc1 (mouse) (UniProt Q99MQ1).
T3 sequence: T1 sequence with A913D, A915K, A916E
Kind of assay: co-sedimentation; continuous 15 to 60% sucrose density gradients of extracts of HEK293T cells transfected with HA-Bicc1 or empty vector; fractions analysed by Western blot. (In general: In western blotting, separated proteins are transferred to a membrane and probed.)

Assay [4] deals with MAEA, yeast two-hybrid fusion (human) (UniProt Q7L5Y9). Kind of assay: two-hybrid; Gal4-BD (pGBKT7) and Gal4-AD (pACTII) fusions, each protein as bait and as prey; HIS3 reporter, growth on Leu-, Trp-, His- medium with 3-AT titration, three days at 30°C.
A further assay deals with T4, Flag-tagged ANKS3 (UniProt Q6ZW76).
T4 sequence: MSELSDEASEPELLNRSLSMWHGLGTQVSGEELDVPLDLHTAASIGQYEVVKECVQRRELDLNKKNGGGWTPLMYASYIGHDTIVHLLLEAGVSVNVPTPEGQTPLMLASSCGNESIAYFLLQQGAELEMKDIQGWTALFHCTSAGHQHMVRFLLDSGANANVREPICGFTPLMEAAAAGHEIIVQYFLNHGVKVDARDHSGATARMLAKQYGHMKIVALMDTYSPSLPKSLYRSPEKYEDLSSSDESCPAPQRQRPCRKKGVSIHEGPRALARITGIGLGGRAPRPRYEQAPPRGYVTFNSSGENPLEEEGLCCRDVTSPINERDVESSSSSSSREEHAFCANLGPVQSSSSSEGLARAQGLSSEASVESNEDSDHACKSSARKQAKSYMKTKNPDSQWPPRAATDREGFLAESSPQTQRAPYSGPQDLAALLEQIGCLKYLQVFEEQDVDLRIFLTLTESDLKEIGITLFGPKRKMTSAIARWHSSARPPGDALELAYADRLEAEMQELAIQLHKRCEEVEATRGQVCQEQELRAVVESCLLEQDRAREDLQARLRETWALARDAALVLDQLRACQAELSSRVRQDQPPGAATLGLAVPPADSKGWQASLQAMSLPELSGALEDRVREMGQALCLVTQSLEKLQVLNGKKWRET
Kind of assay: co-IP; transfected HEK293T extracts (TBS, 1 mM DTT, 0.05% NP-40); anti-HA agarose, anti-FLAG M2 gel or anti-MKLN1; 2 hrs at 4°C; Western blot; mock-transfected cells or pre-immune IgG as control; in Fig 6E with or without cotransfected Flag-ANKS3 or Flag-ANKS3ΔC.

In assay [5] the target is T5, endogenous Bicc1 (mIMCD3 cells) (mouse (endogenous in mIMCD3)) (UniProt Q99MQ1).
T5 sequence: T1 sequence with A913D, A915K, A916E
Kind of assay: co-IP; endogenous Bicc1 immunoprecipitated from mIMCD3 cell extracts with a custom anti-Bicc1 antibody on protein G Sepharose; pre-immune IgG as control; Western blot.

For assay [6], the target named is T6, WT Bicc1, yeast two-hybrid fusion (mouse) (UniProt Q99MQ1).
T6 sequence: T1 sequence with A913D, A915K, A916E
Kind of assay: two-hybrid; Gal4-BD (pGBKT7) and Gal4-AD (pACTII) fusions, each protein as bait and as prey; HIS3 reporter, growth on Leu-, Trp-, His- medium with 3-AT titration, three days at 30°C.

The target in assay [7] is T3, HA-Bicc1 (mouse). The assay can be described thus: co-IP; transfected HEK293T extracts (TBS, 1 mM DTT, 0.05% NP-40); anti-HA agarose, anti-FLAG M2 gel or anti-MKLN1; 2 hrs at 4°C; Western blot; mock-transfected cells or pre-immune IgG as control; in Fig 6E with or without cotransfected Flag-ANKS3 or Flag-ANKS3ΔC.

Numbering of substitutions follows the chain as printed. No constants are given. Whether binding was seen depends on the method and setting. For part of these data: Binding seen in cells or lysates may run through a third protein. Some binding calls cover weakened binding; strength is not graded here. For part of these data: Where a sequence is shown, tags or fusion partners need not be part of it.

Take “ARMC8, yeast two-hybrid fusion (from UniProt Q8IUR7 1-673)”: the binding entry in assay [1] is given as “binds”; in assay [2] it was “no binding”.
With “NOT1 subunit of the CCR4-NOT complex (CNOT1), endogenous in HEK293 cells (from UniProt A5YKK6 1-2376)”, the binding result with HA-Bicc1 (mouse) [3] is “binds”.
Take “RMND5A, yeast two-hybrid fusion (from UniProt Q9H871 1-391)”: the values for the binding result in assay [1] and in assay [4] were “no binding” and “binds”, respectively.
For the molecule “WD repeat-containing protein 26 (WDR26), endogenous in HEK293 cells (from UniProt Q9H7D7 1-661)”, in the assay with Flag-tagged ANKS3, the binding entry is on record as “no binding”.
Turning to “endogenous RanBP9 (mIMCD3 cells) (from UniProt P69566 1-653)”, in assay [5], the binding result is “binds”.
Turning to “endogenous Twa1 (mIMCD3 cells) (from UniProt Q9D7M1 1-228)”, in assay [5], the binding entry is on record as “binds”.

B1: endogenous WDR26 (mIMCD3 cells) (protein, UniProt Q8C6G8 1-641)
chain: MQANGAGGGGGGGGGGQGQTPELACLSAQNGESSPSATSAGDLAHANGLLPAAPSAAGNNSNSLSVNNGVPGGAAAASATAAAAQATPELGSSLKKKKRLSQSDEDVIRLIGQHLNGLGLNQTVDLLMQESGCRLEHPSATKFRNHVMEGDWDKAENDLNELKPLVHSPHAIVVRGALEISQTLLGIIVRMKFLLLQQKYLEYLEDGKVLEALQVLRCELTPLKYNTERIHVLSGYLMCSHAEDLRAKAEWEGKGTASRSKLLDKLQTYLPPSVMLPPRRLQTLLRQAVELQRDRCLYHNTKLDNNLDSVSLLIDHVCSRRQFPCYTQQILTEHCNEVWFCKFSNDGTKLATGSKDTTVIIWQVDPDTHLLKLLKTLEGHAYGVSYIAWSPDDSYLVACGPDDCSELWLWNVQTGELRTKMSQSHEDSLTSVAWNPDGKRFVTGGQRGQFYQCDLDGNLLDSWEGVRVQCLWCLSDGKTVLASDTHQRVRGYNFEDLTDRNIVQEDHPIMSFTISKNGRLALLNVATQGVHLWDLQDRVLVRKYQGVTQGFYTIHSCFGGHNEDFIASGSEDHKVYIWHKRSELPIAELTGHTRTVNCVSWNPQIPSMMASASDDGTVRIWGPAPFIDHQNIEEECSSMDS
As for B1, the binding result in assay [5] is reported as “binds”.

B2: GID4, yeast two-hybrid fusion (protein, UniProt Q8IVV7 1-300)
chain: MCARGQVGRGTQLRTGRPCSQVPGSRWRPERLLRRQRAGGRPSRPHPARARPGLSLPATLLGSRAAAAVPLPLPPALAPGDPAMPVRTECPPPAGASAASAASLIPPPPINTQQPGVATSLLYSGSKFRGHQKSKGNSYDVEVVLQHVDTGNSYLCGYLKIKGLTEEYPTLTTFFEGEIISKKHPFLTRKWDADEDVDRKHWGKFLAFYQYAKSFNSDDFDYEELKNGDYVFMRWKEQFLVPDHTIKDISGASFAGFYYICFQKSAASIEGYYYHRSSEWYQSLNLTHVPEHSAPIYEFR
On to B2, for which the binding entry in assay [1] and in assay [6] was “no binding” throughout.

B3: Flag-tagged ANKS3 (protein, UniProt Q6ZW76 1-656)
chain: T4 sequence
In the case of B3, in the assay with HA-Bicc1 (mouse) [7], the binding entry is given as “binds”.
